Experimental findings from PMC12136788 are described below.

Sequences and labels used below:
T1: UNK ZnF1-3 (human, UniProt Q9C0B0 31-174)
T1 sequence: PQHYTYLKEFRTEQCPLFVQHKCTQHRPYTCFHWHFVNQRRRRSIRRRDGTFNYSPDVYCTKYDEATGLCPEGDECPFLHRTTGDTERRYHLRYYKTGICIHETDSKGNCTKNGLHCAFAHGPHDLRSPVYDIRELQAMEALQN

B1: chr18:25531195:25531196:-_ENSG00000170558_ENST00000399380|hu_hu|FALSE|FALSE (ssRNA)
RNA: GGGAGUUCUACAGUCCGACGAUCUUUCUUUCCUUUCCUUUUUUUUUUUUUUUGGUACAAAUUAUGUAAAACAUUUGUGCUAAGAACUUUUCUCCCUCCCCAAACCAAAAAGAAAAUAAAAAAUAAAAAAAUUAAAAAAAUUAACAACAGAGGAUUGAGCAUCA
B2: 81593598_81593718_1741_CDS_ENSMUSG00000032705_ENSMUST00000038185|mouse|control|control (ssRNA)
RNA: GGGAGUUCUACAGUCCGACGAUCCAGCAGGCGUAGGCCCUCCUCUGAGCCAAUGGGAGCCUGGAACUCCUUGGCCAGCUGUUGCUUCAGAUGGUUGUCAUAGUAGUUAGAGAUGGCAUGGCAGGAGGUGCAGAGCAACAGCACCAACAGAGGAUUGAGCAUCA
B3: chr1:84034342:84034343:-_ENSMUSG00000045658_ENSMUST00000168574|mus_hu|FALSE|FALSE (ssRNA)
RNA: GGGAGUUCUACAGUCCGACGAUCGCCUGAGCGUGGUGAAAACUGGCAUGGAGCUCUCCCACAGAGAGGCAUUGGGAAAUGAGAAAAAUAAGAGAGCCUAGAACCUUCCUCCCCAUCCACACUCCCACCCUCCUCACAGUCACACAACAGAGGAUUGAGCAUCA
B4: chr1:60039268:60039269:+_ENSMUSG00000041040_ENSMUST00000036540|mus_hu|FALSE|FALSE (ssRNA)
RNA: GGGAGUUCUACAGUCCGACGAUCUGACCACAUGGUGAAAUGUGUACAGGAGUAGUGAAGAAAACAGCAGUUAUACAAAUAUUUCACCCAAAGCACAAACUUUUGACAUCAAAAACAUAAAUCACAUAAUGUACGAAUAUUGCUCAACAGAGGAUUGAGCAUCA
B5: chr11:102150864:102150865:-_ENSMUSG00000059995_ENSMUST00000137387|mus_mus|FALSE|FALSE (ssRNA)
RNA: GGGAGUUCUACAGUCCGACGAUCAUUAGUACAGAACCCCCCCACACACAGACACAUGAUAGGAUACAGGGUGGACGACACCUAGCCAGGGUGGGGAGGAUGGGAAUUGAAACCCACACAGCCUGCUGUUAGAGGGAGGGAGUGCAACAGAGGAUUGAGCAUCA
B6: 98527785_98528331_2553_CDS_ENSG00000196367_ENST00000456197|human|control|control (ssRNA)
RNA: GGGAGUUCUACAGUCCGACGAUCUUGCAUACCACGCCUGUUCAUAACAACAUGCACACAGGCGCUCCACGAUGUAAGAAAACAGGGGCAGCUGGCAGGCCCUCUCCUUGGAGCCCAGGAUGAUACUUGCAACAUCAAAUAUCACAACAGAGGAUUGAGCAUCA
B7: chr1:163112212:163112213:-_ENSG00000143248_ENST00000313961|hu_hu|hu_hu_hu_mus_False|38_78 (ssRNA)
RNA: GGGAGUUCUACAGUCCGACGAUCUUUUAUUAUCAGUAAGAGUGAGUUACAUACUAGAUAAAGUAUUGGAUACAAUAAUCAGGAAACAAACACUAUUUUUCUUGAAUUUAAAACUUUAUGAGCGAAGUGCUGGCACAGGACUUACAACAGAGGAUUGAGCAUCA
B8: chr1:115276673:115276674:-_ENSG00000009307_ENST00000339438|perfect_dup|FALSE|FALSE (ssRNA)
RNA: GGGAGUUCUACAGUCCGACGAUCUGUGAAUUCCACGUCAUCUCCAGGCUGUAGGGUUUCUAGGUCACCUUUAAAUUCACUAUAGUGAAAGAAUAUCUCUUUUACAACAUCACCUCUUUCGAUAAAGCCAAACGCCUCCUUCAUCAACAGAGGAUUGAGCAUCA
B9: chr5:23013406:23013407:-_ENSMUSG00000062604_ENSMUST00000088392|mus_hu|FALSE|FALSE (ssRNA)
RNA: GGGAGUUCUACAGUCCGACGAUCGUCCAAUGUACUGGGAACAUUUGCUAGCUCAGAAUGCAAUAUUGGUAGAAUUUGCUAAGAAUUCAACCAAGGAUGCCGAAGGCAUUCGCCAGCUGAGGCUCGUUUUUCUGGAACCAUUUCCAACAGAGGAUUGAGCAUCA
B10: chr2:102141417:102141418:-_ENSMUSG00000027189_ENSMUST00000102573|mus_mus|FALSE|FALSE (ssRNA)
RNA: GGGAGUUCUACAGUCCGACGAUCUGGGUGUGUACAAAUCUCAUUCUCAUUUACACACACACACACACACACACACACACACACACACACACACACACACACACACACUCCAGGAAGGGAGUCCAAAAUUAGUGAUUUGUAUUGCAACAGAGGAUUGAGCAUCA
B11: chr6:41757443:41757444:+_ENSG00000214736_ENST00000398881|hu_mus|hu_hu_hu_mus_False|8_88 (ssRNA)
RNA: GGGAGUUCUACAGUCCGACGAUCGAACCGUGCAGAGGCAACAUCUCGGAAUUCUGCGGGGGAUGGGGGGGCAGUGGGGGGGGGUUCAGGCAAGGAGAGGGAGUCAACUUCAGCUGCCACUCAGGUAGCUGCCAUCAGUCACAGCAACAGAGGAUUGAGCAUCA
B12: 60591913_60592033_947_CDS_ENSMUSG00000049323_ENSMUST00000056907|mouse|control|control (ssRNA)
RNA: GGGAGUUCUACAGUCCGACGAUCCUGCUGCAUGAUUUUAUGCUGGUCUGCGGAGAUAUAAGCCAUACAAAAGGGCCUCACAAAGCCCCUGGCCUCCAGGUCGUACAAGGUGAGGUGGUGCACAUAUGCAAAGGCCCCUUCCUUCAACAGAGGAUUGAGCAUCA
B13: 27324431_27324551_3741_3pUTR_ENSMUSG00000024924_ENSMUST00000167487|mouse|control|control (ssRNA)
RNA: GGGAGUUCUACAGUCCGACGAUCGGUGAAGUGGUGCAGCCAUGUAAUUCUAGAAGUUGAGAGGCUGAGGCAGGAGCAUUGCAAGCUUGAGGCCAGCAAGGGAAGAAAGGAAGGAAGGAAAGAAGGAAGGAAGUGAUAGAUUUGCAACAGAGGAUUGAGCAUCA
B14: chr13:108984363:108984364:+_ENSMUSG00000021694_ENSMUST00000054835|mus_mus|FALSE|FALSE (ssRNA)
RNA: GGGAGUUCUACAGUCCGACGAUCCUGUCUCAAAACCAACAAUAACGGGAAGAACAACCCUGCUCGUGCUGAAGUGCACACAACACUGUCGUGGAAGUCUGAUGGACAAGGAGCCAGGGCUGACAGUCACCCAUCCUCGUCACUCAACAGAGGAUUGAGCAUCA
B15: chr14:31821845:31821846:+_ENSMUSG00000021916_ENSMUST00000168584|mus_mus|FALSE|FALSE (ssRNA)
RNA: GGGAGUUCUACAGUCCGACGAUCGGGAAUCUCCUCUUGCCUCUCACUCACUGGAUGCUGAUGAGCACUGGCGACAAAGUCUAUGGGCUGAAGCCCCACAAUUCCCGAAUCUGAAAUGUCAUUCUUUAACAAACUGCUCAAGCUCAACAGAGGAUUGAGCAUCA
B16: 234749955_234750075_1476_CDS_ENSG00000123485_ENST00000411486|human|control|control (ssRNA)
RNA: GGGAGUUCUACAGUCCGACGAUCGCUGGAAGGUAAACUCAGCCUGCGGGUUUCUAAGCCCUGAAGGCCACCAGGACUCGCAGGACCCCCUCUGUACAUGUUCAUGGCCCAGGAGUCCGGGAGGCACAUCCGGCGAGGCUGGUUCAACAGAGGAUUGAGCAUCA
B17: chr3:149686237:149686238:-_ENSG00000070087_ENST00000452853|perfect_dup|FALSE|FALSE (ssRNA)
RNA: GGGAGUUCUACAGUCCGACGAUCCUCCCCACCUUGACUCUUUGUCCGGAUGUCCAUUGUGCAGUCACCAUCGACGUAUAGACUAUCUCUGAUCACUGAGCAUUUCUUCGCGCCAAGAGUCAAACCGUUGGUAAAGAAACCUUCCAACAGAGGAUUGAGCAUCA
B18: chr7:135612270:135612271:-_ENSG00000105887_ENST00000393085|hu_mus|hu_hu_hu_mus_False|28_98 (ssRNA)
RNA: GGGAGUUCUACAGUCCGACGAUCGUUUUUUUCUGAGUAAGUAUUACGUACUUCAGUGGAAAACAAAACUUAACCUUUUAUUAAUGCGUGUUGUACCAAAAGCAGACCAUGGUUUUACAUUUAUUCAAAAAUAUUAACAUUAAGCAACAGAGGAUUGAGCAUCA
B19: chr4:95690885:95690886:+_ENSMUSG00000028572_ENSMUST00000156910|mus_mus|mus_mus_mus_hu_False|38_98 (ssRNA)
RNA: GGGAGUUCUACAGUCCGACGAUCUUUAGAAAAUGUUAAUGUUAAAUCUAAAAUAUUUUCAAAGGCUUAUUUUAUUUUACCAGAAGUCACAGGCAAGCAGACACCAUAAGAAUAUAUGAAAAUGAAACUCAACAAUAUAACUGUCAACAGAGGAUUGAGCAUCA
B20: chr3:135071361:135071362:-_ENSMUSG00000028165_ENSMUST00000029815|mus_hu|motif|central (ssRNA)
RNA: GGGAGUUCUACAGUCCGACGAUCUCUCUGUGAAAACACAAGUAAUUCUUGAUGGCAAUAUUUUUCUUAAUUCACCGGACCAAAUGCAGUUUGGAAGGCCAAAACGAGAAAAAAACACUUCAGAUUAUCAAAACCAAAAGAGAUCAACAGAGGAUUGAGCAUCA
B21: 43513620_43515349_3275_CDS_ENSG00000052841_ENST00000039989|human|control|control (ssRNA)
RNA: GGGAGUUCUACAGUCCGACGAUCCCACACCAGUGCUUUUUCAAAUUCUUCCAUUGCCACGUAGACAUUGCCCAGAGUGAAGUGGUUCACAGCAAAGUGUGGUGCGAUCUCUACUGCCAUGGUGGCUACUAUGACGGCGUCAUUCAACAGAGGAUUGAGCAUCA
B22: chr4:109959894:109959895:-_ENSMUSG00000028546_ENSMUST00000106598|mus_hu|motif|central (ssRNA)
RNA: GGGAGUUCUACAGUCCGACGAUCCUUCGACUCUUCUGUUAAAAUUUGCAAAGAUUUCAGAAUAUAUAUUUAAAAUGACGGCGGUUGUUAUAUAUAAUUAAAGAUCCACAAAACACAGUGUGGAUGAUUGUAAAGCAAAUCAAUCAACAGAGGAUUGAGCAUCA

This is one part of the list.

The experiment has as its target T1, UNK ZnF1-3. The experiment in a line: nsRBNS (natural sequence RNA bind-n-seq); RBNS binding buffer (assumed for nsRBNS): 25 mM Tris pH 7.5, 150 mM KCl, 3 mM MgCl2, 0.01% Triton X-100, 500 ug/ml BSA, 20 U/ml SUPERase-In, 4 C; UNK is unkempt and MSI1 is Musashi-1; names of the RNAs are library labels; protein concentration not given here; high values mean tight binding.
For B1, the binding signal worked out at 1.19 enrichment R.
Next, B2: 0.952 enrichment R.
The result for B3 reads 1.73 enrichment R; that for B4, 1.62 enrichment R; that for B5, 1.39 enrichment R.
B6 returned a binding signal of 0.978 enrichment R.
The result for B7 reads 1.09 enrichment R; that for B8, 1.29 enrichment R.
The result for B9 reads 1.03 enrichment R.
Next, B10: 1.37 enrichment R; B11: 2.67 enrichment R; B12: 0.747 enrichment R.
B13 came in with a binding signal of 2.89 enrichment R.
The result for B14 reads 1.06 enrichment R.
The result for B15 reads 1.07 enrichment R; that for B16, 0.551 enrichment R.
Next, B17: 1.08 enrichment R; B18: 1.08 enrichment R; B19: 2.74 enrichment R.
As to B20, the binding signal stood at 1.36 enrichment R.
Next, B21: 0.953 enrichment R; B22: 2.04 enrichment R.
